Laboratory results from the supplement of paper PMC12217912.
The other results are listed elsewhere or left out. Sequences were assembled here from the parent chain. Inactive controls read about 0.05.

B1: TEV protease; numbered along this chain (parent)
chain: MGESLFKGPRDYNPISSSICHLTNESDGHTTSLYGIGFGPFIITNKHLFRRNNGTLVVQSLHGVFKVKDTTTLQQHLVDGRDMIIIRMPKDFPPFPQKLKFREPQREERICLVTTNFQTKSMSSMVSDTSCTFPSGDGIFWKHWIQTKDGQCGSPLVSTRDGFIVGIHSASNFTNTNNYFTSVPKNFMELLTNQEAQQWVSGWRLNADSVLWGGHKVFMVKPEEPFQPVKEATQL

Variants of: B1
Assay: raw area under fraction-flipped curve 0-4 h after induction (AUC4h, not background-subtracted), DNA-recorder readout of cleavage of the substrate (dimensionless); higher = more cleavage of the substrate by the protease variant
Conditions: temperature: 34 °C; time window: 0-4 h after rhamnose induction
Experimental: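 In vivo DNA recorder in E. coli TOP10(DE3) ΔrhaA at 34 °C. Each TEVp single-site mutant (parent TEVp 0) is paired with a single-site variant of the 7-mer TEVs (canonical ENLYFQ|S). The substrate sits between flexible linkers in a Bxb1-sfGFP-TEVs-SsrA fusion, so cleavage stabilises Bxb1 and speeds flipping of a recombination array, read by NGS. The value is the raw area under the fraction-flipped curve over 0-4 h after rhamnose induction (AUC4h), with ≥20 reads per time point. It is not background-subtracted; inactive controls average about 0.047.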
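Also: Bxb1 expression induced with 0.2% (w/v) L-rhamnose at OD600 near 0.5, cultures sampled hourly, flipped fraction per protease–substrate barcode pair counted by paired-end Illumina sequencing.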

| Variant | area with substrate ENAYFQS | area with substrate ENCYFQS | area with substrate ENDYFQS | area with substrate ENEYFQS | area with substrate ENFYFQS | area with substrate ENGYFQS | area with substrate ENHYFQS | area with substrate ENIYFQS | area with substrate ENKYFQS | area with substrate ENMYFQS | area with substrate ENNYFQS | area with substrate ENPYFQS | area with substrate ENQYFQS | area with substrate ENSYFQS | area with substrate ENTYFQS | area with substrate ENVYFQS | area with substrate ENRYFQS | area with substrate ENWYFQS | area with substrate ENYYFQS |
| --- | --- | --- | --- | --- | --- | --- | --- | --- | --- | --- | --- | --- | --- | --- | --- | --- | --- | --- | --- |
| D11Q | 0.0575 | 0.0653 | 0.0582 | 0.0635 | 0.0673 | 0.0559 | 0.0603 | 0.0866 | 0.0612 | 0.083 | 0.0685 | 0.0496 | 0.0638 | 0.0672 | 0.059 | 0.0702 | – | – | – |
| D11A | 0.0634 | 0.0765 | 0.0626 | 0.0617 | 0.0353 | 0.043 | 0.0639 | 0.0946 | 0.0626 | 0.0675 | 0.0808 | 0.0555 | 0.0497 | 0.0604 | 0.0626 | 0.0785 | 0.0561 | 0.0388 | 0.0691 |
| G2M | 0.0543 | 0.0842 | 0.0593 | – | – | – | – | – | – | – | – | – | 0.0702 | – | – | – | – | – | – |
| P14C | 0.0649 | 0.0631 | 0.0652 | 0.0625 | 0.0565 | 0.0593 | 0.0689 | 0.178 | 0.0621 | 0.0812 | 0.0578 | 0.0538 | 0.0669 | 0.0586 | 0.0667 | 0.0769 | 0.0497 | 0.064 | 0.0658 |
| P14W | 0.06 | 0.0697 | 0.0594 | 0.0557 | 0.0547 | 0.0716 | 0.0671 | – | 0.0598 | – | 0.0662 | 0.0452 | 0.0556 | 0.0585 | 0.078 | – | 0.0481 | 0.0528 | – |
| S18R | 0.0427 | 0.0687 | 0.0496 | 0.0599 | 0.0553 | 0.0456 | 0.058 | 0.0839 | 0.0529 | 0.0728 | 0.0487 | – | 0.0622 | 0.0689 | 0.0476 | 0.0611 | 0.0589 | 0.0594 | 0.0518 |
| S18K | 0.0549 | – | 0.0557 | 0.0363 | – | 0.0556 | – | 0.0772 | – | – | 0.0648 | 0.0562 | 0.0584 | 0.0562 | 0.0678 | 0.0494 | 0.0519 | 0.0455 | – |
| I15C | 0.0459 | 0.0555 | 0.0446 | 0.0605 | 0.046 | 0.0544 | 0.0578 | 0.101 | 0.0595 | 0.0581 | 0.0552 | 0.0277 | 0.0532 | 0.0562 | 0.0641 | 0.0785 | 0.0522 | 0.0653 | 0.0742 |
| I15S | 0.0814 | – | 0.0579 | 0.0446 | 0.0726 | 0.0327 | 0.0571 | – | 0.0425 | 0.0644 | 0.0454 | 0.0974 | 0.0615 | 0.053 | 0.0557 | 0.0898 | 0.0251 | – | 0.0667 |
| Y12K | 0.0668 | 0.0799 | 0.0598 | 0.0618 | 0.0584 | 0.0552 | – | – | 0.0614 | 0.0727 | – | 0.0605 | 0.0596 | 0.091 | 0.0645 | 0.0644 | 0.0738 | – | – |
| Y12S | 0.0779 | 0.0595 | 0.0658 | 0.064 | 0.0637 | 0.0728 | 0.0643 | – | 0.0534 | 0.0717 | – | 0.0638 | 0.066 | 0.0598 | 0.0878 | 0.0843 | – | – | 0.047 |
| Y12W | 0.0581 | 0.0806 | 0.059 | 0.05 | 0.067 | 0.0563 | 0.0597 | – | 0.09 | 0.0838 | 0.0716 | 0.0528 | 0.0577 | 0.0548 | 0.061 | 0.0918 | 0.0777 | 0.0511 | 0.0446 |
| Y12H | 0.0535 | 0.0691 | 0.0476 | 0.0606 | 0.0671 | 0.0631 | – | – | 0.0724 | 0.074 | 0.0568 | – | 0.0562 | 0.0639 | 0.0711 | – | – | – | 0.0637 |
| S26F | 0.0545 | 0.0579 | 0.067 | 0.0515 | 0.0528 | – | – | 0.0763 | 0.0659 | 0.0479 | 0.0594 | 0.0404 | 0.0554 | 0.0638 | 0.0608 | 0.0668 | 0.0516 | 0.058 | – |
| S26C | 0.0532 | 0.0677 | 0.059 | 0.0458 | 0.0568 | – | 0.0483 | 0.0874 | 0.0585 | – | 0.0734 | 0.0607 | 0.0584 | 0.0642 | 0.0634 | 0.0838 | 0.0553 | – | – |
| D27A | 0.0524 | – | 0.052 | 0.0566 | 0.0588 | 0.0476 | 0.0576 | 0.0882 | 0.0538 | 0.0749 | 0.0563 | 0.0469 | 0.0418 | 0.0472 | 0.073 | – | 0.0462 | – | 0.0553 |
| D27K | 0.0912 | 0.0661 | 0.0615 | 0.0514 | – | 0.0704 | – | – | – | 0.0675 | 0.0573 | – | 0.0605 | 0.0614 | – | 0.0722 | 0.0633 | – | 0.0597 |
| D27Q | 0.0656 | 0.0666 | 0.0592 | 0.0982 | 0.0566 | 0.0578 | – | – | 0.0647 | 0.0827 | – | 0.057 | 0.0558 | 0.0584 | 0.0643 | 0.0793 | – | – | 0.052 |
| H21G | 0.0899 | 0.0617 | 0.0595 | 0.0613 | 0.0619 | 0.059 | – | 0.0988 | 0.0628 | – | 0.063 | 0.0727 | 0.0371 | 0.0601 | 0.0595 | 0.0727 | 0.0595 | 0.0546 | 0.0578 |
| H21Y | 0.0634 | 0.0804 | 0.0552 | 0.0545 | 0.0512 | – | – | – | 0.097 | – | 0.0602 | – | 0.0522 | 0.066 | – | 0.0597 | – | 0.0534 | – |
| H21N | 0.0645 | 0.0682 | 0.0597 | 0.0642 | – | 0.0449 | – | – | 0.0624 | 0.0726 | 0.0596 | 0.0553 | 0.0676 | 0.0608 | – | 0.0585 | 0.0591 | 0.0477 | 0.0649 |
| H21W | 0.0544 | 0.0766 | 0.0556 | 0.0546 | 0.064 | 0.0647 | 0.0628 | 0.0873 | 0.0396 | 0.0823 | 0.0594 | – | – | 0.0614 | 0.0688 | 0.0773 | 0.0399 | – | – |
| H21D | 0.0654 | 0.064 | 0.111 | 0.0636 | – | 0.0378 | 0.0563 | 0.0701 | 0.0345 | 0.0628 | 0.0648 | 0.0636 | 0.0558 | – | – | 0.0591 | – | 0.0047 | 0.0647 |
